# Results reported in PubChem BioAssay AID1865 (National Center for Advancing Translational Sciences (NCATS), 2009).
# Among all 280,000 compounds or so, about 540 (0.19%) were called active. The inconclusive results got no clear call from the source; some entries with a clear call stand among them for comparison. The call rests on the fitted dose curve; in most records, active means well fitted activation curve with a large enough effect; inconclusive means small, poorly fitted or top-dose-only effect; inactive means flat fitted curve, though single readings scatter. Potencies beside an inconclusive call are fits to weak or partial responses and may not hold up.
# Experiment: Quantitative High-Throughput Screen for Regulators of Epigenetic Control; further: nearly all actives have a fitted effect of over 60% in size; on GFP activation: % of control where 0% means no effect
# Conditions: murine LDR cells, GFP reporter derepression, 30 h; GFP activation: at 53.9 µM (top of the series)
# Method in brief: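 Murine LDR cells bearing a silenced CMV-driven GFP reporter were exposed to compound for 30 h at 37 C. After PBS washes, GFP-positive cells (20-120 um objects) counted by laser-scanning microplate cytometry.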
# Potency means the concentration at half of the fitted maximal effect; tags describe the fitted curve by direction and shape.
SMILES,GFP activation,Potency
O=C1C2=CC[C@H]3C(=O)N(Cc4ccc5c(c4)OCO5)C(=O)[C@@H]3[C@@H]2[C@H](O)[C@@H]2O[C@H]12,inactive: 10.2% [at 10.1 µM],
Cn1ncc(S(=O)(=O)Cc2ccccc2)c(Cl)c1=O,,"inconclusive: 6.31 µM [activator, single point]"
CCOC(=O)c1ccc(CSC(=N)N)o1,,"inconclusive: 22.4 µM [activator, single point]"
O=c1c2c3c(sc2n(Cc2cc(=O)n4ccccc4n2)c(=O)n1-c1ccc(Cl)cc1)CCC3,,"inconclusive: 35.5 µM [activator, single point]"
Cc1ccc(NC(=O)C(Cc2c[nH]c3ccccc23)NC(=O)OCC(C)C)cc1 (stereo not given),,"inconclusive: 31.6 µM [activator, single point]"
CCn1c(/C=C/Nc2ccccc2)[n+](CC)c2ccc(C(=O)OCC(F)(F)F)cc21,,"inconclusive: 17.8 µM [activator, single point]"
CCN(CC)c1ccc2cc(C(=O)Nc3ccc(-n4cnnn4)c(OC)c3)c(=O)oc2c1,,"inconclusive: 22.4 µM [activator, single point]"
COc1ccc(-c2cn3cc(C(=O)NN)ccc3n2)cc1,inactive: -2.91%,
COc1ccc2nc(C)cc(Nc3ccccc3O)c2c1,inactive: 2.99%,
Cc1ccc(-c2cc(C(F)(F)F)c(C#N)c(SCC(=O)Nc3ccccc3)n2)cc1,,"inconclusive: 11.2 µM [activator, partial curve]"
COc1cccc(NC(=O)C2CCN(c3nn4cc(-c5ccc(F)cc5)nc4s3)CC2)c1,,"inconclusive: 25.1 µM [activator, single point]"
N=C1S/C(=C\c2ccc(-c3cccc(Cl)c3)o2)C(=O)N1c1nccs1,,"inconclusive: 25.1 µM [activator, single point]"
COc1ccc(OC)c(C2CC(c3c(-c4ccccc4)c4cc(Cl)ccc4[nH]c3=O)=NN2S(C)(=O)=O)c1 (stereo not given),,"inconclusive: 22.4 µM [activator, single point]"
CCOC(=O)Cn1c2ccc(OC)cc2c2nc3ccccc3nc21,,"inconclusive: 22.4 µM [activator, single point]"
Cc1ccc(C(=O)Nc2ccc(OCc3cc(=O)n4c(C)csc4n3)cc2)cc1,,"inconclusive: 35.5 µM [activator, single point]"
Cc1nn2c(NCc3ccccn3)cc(C(C)C)nc2c1-c1ccccc1,,"inconclusive: 31.6 µM [activator, single point]"
CCOC(=O)C(C)NC(=O)C1CCN(c2ncnc3c2nc2n3CCCCC2)CC1 (stereo not given),inactive: -1.23%,
CC(=O)/C=C/n1c(=S)oc2ccccc21,,"inconclusive: 5.62 µM [activator, single point]"
CCOC(=O)c1[nH]c2ccc(Br)cc2c1NC(=O)CCN1CCCC(C)(C)C1,,"inconclusive: 17.8 µM [activator, single point]"
CC(NC(=O)CN(c1ccc(Cl)cc1Cl)S(=O)(=O)c1ccccc1)c1ccccc1 (stereo not given),,"inconclusive: 3.16 µM [activator, single point]"
CNC(=O)c1c(NC(=O)/C=C/c2ccccc2Cl)sc2c1CCC2,,"inconclusive: 25.1 µM [activator, single point]"
CCN(c1ccccc1C)S(=O)(=O)c1nnc(NC(=O)c2ccc(OC)c(OC)c2)s1,,"inconclusive: 10 µM [activator, partial curve]"

SMILES,GFP activation,Potency
COc1cc(CNc2ccc(O)cc2)cc(Br)c1OCc1ccccc1,,"inconclusive: 20 µM [activator, single point]"
CCc1ccc(C(=O)c2cn(CC(=O)NCCc3ccccc3)c3nc(C)ccc3c2=O)cc1,,"inconclusive: 31.6 µM [activator, single point]"
CS(=O)(=O)N1N=C(c2ccc(Br)cc2)CC1c1ccc2c(c1)OCO2 (stereo not given),,"inconclusive: 31.6 µM [activator, single point]"
CCn1c(C)cc(/C=C2\SC(=O)N(CC(=O)Nc3ccc(C)c(C)c3)C2=O)c1C,,"inconclusive: 35.5 µM [activator, single point]"
O=C1C(Cl)=C(N2CCC(C(=O)O)CC2)C(=O)c2ccccc21,,"inconclusive: 35.5 µM [activator, single point]"
COc1ccc(-c2cc(C(F)(F)F)n3nc(C)c(-c4ccccc4)c3n2)cc1OC,,"inconclusive: 7.08 µM [activator, partial curve]"
Cn1c(-c2c(N)n(CCCc3ccccc3)c3nc4ccccc4nc23)nc2ccccc21,,"inconclusive: 35.5 µM [activator, single point]"
O=C(NCc1ccccc1)N1CCC(c2nc3ccccc3[nH]2)CC1,,"inconclusive: 5.62 µM [activator, single point]"
CCc1cccc(NC(=O)Cn2c(=O)n(CCCCCC(=O)NCc3ccc(F)cc3)c(=O)c3sccc32)c1,,"inconclusive: 35.5 µM [activator, single point]"
CC(=O)Nc1ccc2c(c1)C(C)(C)C(C)N2C (stereo not given),inactive: -5.26%,
CCOc1ccccc1NC(=O)Cn1c(=O)n(Cc2ccc(OC)cc2)c(=O)c2oc3ccccc3c21,,"inconclusive: 12.6 µM [activator, single point]"
CCc1ccccc1NC(=O)c1cc(-c2ccc(Cl)s2)nc2ccccc12,,"inconclusive: 20 µM [activator, single point]"
COc1ccc(-c2cc(C(=O)NCCc3ccc(S(N)(=O)=O)cc3)c3ccccc3n2)cc1,,"inconclusive: 31.6 µM [activator, single point]"
CCN(CC)S(=O)(=O)c1cccc(C(=O)c2c(C)cc3ccccn23)c1,,"inconclusive: 2.82 µM [activator, single point]"
CC1=CC2=NC(=O)/C(=C\c3cn(C)c4ccccc34)C(=N)N2O1,,"inconclusive: 35.5 µM [activator, single point]"
N#C/C(=N\Nc1cccc2ccccc12)c1nnc2n1CCCCC2,inactive: 0.99%,
CN(C)c1ccc(/C=C(\C#N)c2nc(-c3ccc(Cl)c(Cl)c3)cs2)cc1,,"inconclusive: 25.1 µM [activator, single point]"
CCOC(=O)c1nn(-c2ccc(C)c(C)c2)cc1O,inactive: 1.75%,
CSc1ccc(/C=c2\s/c(=C\C(=O)C(C)(C)C)n(CC(=O)NCCC3=CCCCC3)c2=O)cc1,,active: 20 µM
COc1ccc2c(c1)c1nc3ccccc3nc1n2CCCN1C(=O)c2ccccc2C1=O,,"inconclusive: 15.8 µM [activator, partial curve]"
O=C(C1=C(O)C(=O)N(c2ncccn2)C1c1ccc(Cl)cc1)c1ccco1 (stereo not given),inactive: -3.23%,
COc1nc(-c2ccccc2)ccc1-c1noc(-c2ccco2)n1,inactive: 0%,

SMILES,GFP activation,Potency
Cc1nn2c(NCCN(C)C)c3c(nc2c1-c1ccccc1)CCCC3,,"inconclusive: 31.6 µM [activator, single point]"
CC(C)(C)c1ccc(-c2nc(SCC(=O)Nc3ccc(Cl)cc3)[nH]c(=O)c2C#N)cc1,inactive: -2.39%,
CC1C/C(=C/c2cccn2C)C(=O)/C(=C/c2cccn2C)C1 (stereo not given),,active: 11.2 µM
CC1CCN(c2nc(-c3ccco3)c3c(c2C#N)CC(C)(C)OC3)CC1,inactive: -0.769%,
CC(=O)N1c2ccc(S(=O)(=O)NCCC(=O)Nc3ccc(Br)c(C)c3)cc2CC1C (stereo not given),inactive: 6.93%,
CCC(=O)c1cc2c(cc1NC(=O)c1ccccc1F)OCCO2,,"inconclusive: 3.98 µM [activator, single point]"
CCOc1ccc(CCNC(=O)c2ccc(-n3c(C)cc4c3CCC(C)C4)cc2)cc1OCC (stereo not given),,"inconclusive: 25.1 µM [activator, single point]"
Cc1cc(C)c2cc(C#N)c(SCC(=O)Nc3ccc4c(c3)OCO4)nc2c1,,"inconclusive: 17.8 µM [activator, single point]"
CSc1ccc(CCNC(=O)c2ccc(-n3c(C)cc4c3CCC(C)C4)cc2)cc1 (stereo not given),,"inconclusive: 31.6 µM [activator, single point]"
O=S(=O)(NCC(c1ccccc1)N1CCc2ccccc21)c1ccc(Cl)cc1 (stereo not given),,"inconclusive: 20 µM [activator, single point]"
COC(=O)[C@@H]1CCCN1C(=O)[C@H]1C[C@@H]1[C@H](NC(=O)OCc1ccccc1)c1ccccc1,inactive: -0.809%,
Cc1cccc(C(=O)NC(=S)NNC(=O)Cc2ccccc2)c1,inactive: -0.799%,
N#C/C(=C\c1ccc(N2CCOCC2)o1)c1nc2ccccc2[nH]1,,active: 12.6 µM
CCOc1ccc(NC(=O)c2nc(S(=O)(=O)Cc3ccccc3F)ncc2Cl)cc1,,"inconclusive: 3.98 µM [activator, partial curve]"
COc1ccc(CN=Cc2[nH]c3ccc(Br)c(Cl)c3c2O)cc1,,"inconclusive: 25.1 µM [activator, single point]"
CCN1CCN(C2=CC3=CC(=C(C#N)C#N)CCC3CC2)CC1 (stereo not given),,active: 1.41 µM
Nc1c(C(=O)N/N=C/c2ccc(F)cc2)oc2nc(-c3ccccc3)cc(-c3ccco3)c12,inactive: 4.18%,
N#C/C(=C\c1cccc(NC(=O)c2ccccc2Cl)c1)C(=O)NCCc1ccccc1,,"inconclusive: 35.5 µM [activator, single point]"
Cc1ccc(C)c(NC(=O)c2nc(S(=O)(=O)Cc3ccc(F)cc3)ncc2Cl)c1,,"inconclusive: 1.26 µM [activator, full curve, poor fit]"
O=C1N/C(=C\c2ccc(N3CCOCC3)c(F)c2)C(=O)N1Cc1ccccc1,,"inconclusive: 35.5 µM [activator, single point]"
CC(=O)N1CCc2cc(S(=O)(=O)CCC(=O)N3CCN(c4ccccn4)CC3)ccc21,inactive: -2%,
